The assay relates to NCI-H322M lung. In words: NCI anticancer screen, dose series, 48 h.

SMILES strings stand for the structures. Values joined by “and” are separate entries in the source; they are usually repeats but may differ in a detail not shown here. Equal entries are not always repeated.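 Method: 48-hour compound exposure of cells in 96-well plates, five concentrations, linear interpolation of endpoints. GI50 marks 50% less growth. TGI marks complete inhibition of growth.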 Numbered stars: 1 amine (or outer) side, 2 acyl side, 3 side chain; on linkers, the order of the positions; unused ones are H or OH. Bridge positions count the residues as written; N and C are the ends. Square brackets hold non-standard residues; d marks the D form. Peptide text beside a SMILES is read from it. * marks the point of attachment. Phe(3-Me) = Cc1cccc(C[C@H](N)C(=O)O)c1; NH(4-Cl-2-F-phenyl) = Fc1cc(Cl)ccc1N*; Pro(4R-Me) = C[C@H]1CN[C@H](C(=O)O)C1; Hyp = O=C(O)[C@@H]1C[C@@H](O)CN1; aThr = C[C@H](O)[C@H](N)C(=O)O; Pip = O=C(O)[C@@H]1CCCCN1; CO = O=C([*:1])[*:2]

In the case of `CN(C)CC#Cc1cccc(C(=O)c2cnn(-c3ccc(F)cc3)c2N)c1`, the GI50 is above 25 µM and the TGI was above 25 µM. With `O=C(N/N=C/c1cc(Br)cc(Br)c1[O-])c1ccccc1O.O=C(N/N=C/c1cc(Br)cc(Br)c1[O-])c1ccccc1O.[Mn+2]`, the TGI was 20.8 µM. On to `CC(C)(N=NC(C)(C)C1=NCCN1)C1=NCCN1`, for which the TGI is above 100 µM. As for `CN(C)CCCNC(=O)CNC(=O)c1cc(NC(=O)c2cc(NC(=O)c3cc(NC(=O)CCNC(=O)c4cc(NC(=O)c5cc(NC(=O)c6nccn6C)cn5C)cn4C)cn3C)cn2C)cn1C`, the TGI is above 100 µM. As for `Cc1cccc(C[C@H](NC(=O)Nc2ccc(Cl)cc2F)C(=O)N[C@@H]2C(=O)N3C[C@H](O)C[C@H]3C(=O)N3CCCC[C@H]3C(=O)N[C@@H](C)C(=O)N3C[C@H](C)C[C@H]3C(=O)O[C@H]2C)c1` ({NH(4-Cl-2-F-phenyl)-CO}-[Phe(3-Me)][aThr][Hyp][Pip]A[Pro(4R-Me)]; ester 2-C), the GI50 is 0.967 µM and the TGI was 4.29 µM.

The molecule `O=C1CNc2cc(N3CCN(c4cccc(C(F)(F)F)c4)CC3)ccc2N1` showed a TGI above 100 µM. In the case of `COC(=O)[C@H]1ON2O[C@@H](O[C@H]3CCCC[C@@H]3C(C)(C)c3ccccc3)C[C@@H]3CC[C@H]1[C@@]32C`, the TGI was above 100 µM. Turning to `Cc1cc2nc3c(C(O)CO)nn(-c4ccccc4)c3nc2cc1C` (stereo not drawn), the TGI is 44.5 µM.

With `O=C(Nc1ccncc1)C(=O)c1cn(S(=O)(=O)c2ccccc2F)c2ccccc12`, the GI50 is 24.2 µM and the TGI is above 100 µM. Molecule `Cc1ccc(NC(=S)NNC(=O)c2cc(-c3ccccc3)nc3ccccc23)cc1C` yielded a TGI of 84.8 µM. As for `C=CCC1(O)c2cccc(O)c2C(=O)c2cccc(O)c21` (stereo not drawn), the TGI was 96.7 µM. Turning to `CC[O-].CC[O-].O=Nc1ccc2cc([O-])ccc2c1.O=Nc1ccc2cc([O-])ccc2c1.[Ti+4]`, the GI50 is 1.91 µM and the TGI was 4.45 µM. The corresponding values for `Cn1c2ccccc2c2nnc(N/N=C/c3ccccn3)nc21` are 0.332 µM and above 37.7 µM. Molecule `CCOC(=O)NNC1(SC)NC(=O)c2c(cc(Cl)oc2=O)O1` (stereo not drawn) came in with a TGI of 23.5 µM. Still for that read-out and setting: for `C#CCSc1cnc2ccccc2c1Sc1c[nH]c2ccccc2c1=O` the value was above 100 µM. Still for that read-out and setting: under `CCOC(=O)CC[C@@H](NC(=O)c1ccc(NCc2ccc3nc(OC)c(OC)nc3c2)cc1)C(=O)OCC` stands above 100 µM. Consider `CN(/N=N/c1nc(OCc2ccccc2)c2[nH]cnc2n1)C(=O)N(C)/N=N/c1nc(OCc2ccccc2)c2[nH]cnc2n1`, for which the GI50 is 41.3 µM and the TGI is above 100 µM. For `CC1(C)N=C(N)N=C(N)N1c1ccc(CCCCc2ccc(Cl)cc2Cl)cc1`, the TGI is 16.1 µM. In the case of `O=c1[nH]nc2c3c(cccc13)NC(CN1Cc3ccccc3C1)=N2`, the GI50 was 55.3 µM and the TGI is above 100 µM. Turning to `Cc1c(Cl)cccc1NC(=O)c1sc2nc3c(cc2c1N)CCCCCC3`, the GI50 was 0.331 µM and the TGI is above 50 µM. As to `Cc1nn2c(/C=C3/C(=O)Nc4ccc(Cl)cc43)c(-c3ccccc3)nc2s1`, the GI50 was 3.97 µM and the TGI was 17.6 µM. Take `O=C(O)c1ccc([N+](=O)[O-])c2c(=O)c3ccccc3[nH]c12`: the TGI was above 100 µM. Molecule `CCOC(=O)C#Cc1ccc(C#CC(=O)OCC)cc1` gave a TGI above 37.6 µM. Turning to `COc1ccccc1/C=C1/Sc2scc(CC(=O)Nc3ccccc3)[n+]2C1=O`, the TGI was above 100 µM. As for `COc1cc(-c2cc(-c3nc4ccccc4[nH]3)[nH]n2)cc(OC)c1OC`, the GI50 was 2.85 µM and the TGI worked out at 17.2 µM. On to `N#Cc1nsnc1-c1nc(-c2nsnc2C#N)nc(-c2nsnc2C#N)n1`, for which the TGI is above 100 µM. Regarding `N#CSCC1CC(O)(c2ccccc2)C(c2ccccc2)C(c2ccc(F)cc2)O1` (stereo not drawn), the GI50 is 4.28 µM and the TGI stood at 24.2 µM. For `COc1ccc(/C=C(\C#N)c2cc(OC)c3c(c2)OCO3)cc1`, the GI50 is 0.071 µM and the TGI is above 73.2 µM. As to `Nc1ncc(-c2ccc(C(F)(F)F)cc2)c(NC2CCCCCC2)n1`, the GI50 was above 100 µM and the TGI was above 100 µM. Regarding `NC(=NC1CCCCCC1)c1ccc(N2CCN(c3ccc(C(N)=NC4CCCCCC4)cc3)CC2)cc1`, the GI50 is 20.4 µM and the TGI was above 50 µM.

`O=[N+]([O-])/C(C(Cl)=C(Cl)Cl)=C(/Sc1ccccc1)N1CCOCC1` came in with a TGI of 33.9 µM. Molecule `O=C(Nc1nccs1)c1cc(C2=CC=CC([N+](=O)[O-])C=C2)nc(=S)[nH]1` (stereo not drawn) had a TGI above 100 µM.

For the molecule `COC[C@H]1OC(=O)c2coc3c2[C@@]1(C)C1=C(C3=O)[C@@H]2CCC(=O)[C@@]2(C)C[C@H]1OC(C)=O`, the GI50 is 3.92 µM and the TGI was above 100 µM. Regarding `COc1ncc(C#CC(=O)c2ccccc2OC)c(OC)n1`, the TGI came out at 36.4 µM. `O=C(/C(Cl)=C/c1ccccc1)c1ccccc1` came in with a TGI of 30 µM. Molecule `CC(=O)O[C@@H]1CC(C)C2CC2C2=C(C(O)OC2O)[C@@H]1C(C)CCC=C(C)C` (stereo partly drawn) registered a TGI of 67.6 µM. For `c1ccc2[nH]c(-c3ccc(OCCCCCOc4ccc(-c5nc6ccccc6[nH]5)cc4)cc3)nc2c1`, the GI50 is 3.72 µM and the TGI was 15.6 µM. The molecule `Cc1cc(S(N)(=O)=O)c(S/C(=N\Nc2ccc([N+](=O)[O-])cc2)c2ccc(Cl)cc2)cc1Cl` had a TGI of 4.34 µM. Same read-out and setting: for `Cc1ccc(C2=Nc3ccccc3NC(=O)C2)cc1` the value was above 100 µM; for `O=C(Nc1ccc2oc(=O)c(C(=O)O)cc2c1)Oc1ccccc1`, above 100 µM. Take `CC(C)(C)OC(=O)/C=C/C(=O)O/C=C/[N+](=O)[O-]`: the TGI was above 100 µM. Regarding `NC1CCC[C@@H](O)[C@H]1O` (stereo partly drawn), the TGI was above 100 µM. Turning to `Fc1ccc(-c2nnc3sc(-c4cccc(Cl)c4)nn23)cc1Cl`, the GI50 was above 100 µM and the TGI was above 100 µM.

Take `C=CCOc1ccc(C2c3c([nH][nH]c3=O)CC(C)(O)C2C(=O)OC)cc1OC` (stereo not drawn): the TGI was above 100 µM. Turning to `COc1ccc(CN=C2Nc3ccncc3S(=O)(=O)N2c2ccccc2)cc1`, the TGI is above 100 µM. As to `O=C(/C=C/c1ccc(Cl)c(Cl)c1)CCN1CCN(CCC(=O)/C=C/c2ccc(Cl)c(Cl)c2)CC1`, the TGI is above 100 µM.

Turning to `C=C(CN1CCN(c2ccccc2F)CC1)c1ccc(C(=O)Nc2ccccc2N)cc1`, the GI50 is 5 µM and the TGI is above 100 µM. As for `CCN(CC)C(=S)N/N=C(\C)c1ccccc1O`, the TGI was above 100 µM. Molecule `COc1cc2c(cc1OC)[C@@H](C(O)c1ccccc1)NCC2` (stereo partly drawn) gave a TGI above 100 µM. Take `N#CC1(c2nc3ccccc3o2)C(=O)C(=O)N(c2ccc(Cl)c(Cl)c2)C(=O)C1=O`: the TGI was above 100 µM. For `Cc1cc(-c2nc3ccc(O)cc3s2)ccc1N`, the GI50 was 39.6 µM and the TGI is above 100 µM. Regarding `CCCC(=O)N[C@@H](Cc1cc(I)c(O)c(I)c1)C(=O)NCCCNCCCCNCCCNC(=O)[C@@H](N)CCCN=C(N)N`, the TGI was above 100 µM. Regarding `Cn1c(=O)c2[nH]c(COCc3nc4c([nH]3)c(=O)n(C)c(=O)n4C)nc2n(C)c1=O`, the TGI is above 100 µM. For the molecule `CCOC(=O)c1ccc(Nc2nc3ccc(C(F)(F)F)cc3nc2-c2ccccc2)cc1`, the TGI is above 100 µM. `CCO[C@H]1C[C@@H](c2ccccc2)[C@]2(C)C[C@H](C(=O)OC)ON2O1` showed a TGI above 100 µM. With `O=Cc1[nH]c2ccccc2c1Br`, the TGI was above 100 µM. Take `CCN(CC)CCCC(C)Nc1cnc(C(=O)Nc2cc(F)cc3cccnc23)cn1` (stereo not drawn): the GI50 is 10.8 µM and 1.69 µM; the TGI is 22.7 µM and 3.16 µM. Take `C=C1C(=O)O[C@@H]2C[C@@H](C)[C@@H]3[C@@H](OC4OC(COC(C)=O)C(O)C(O)C4O)CC(=O)[C@@]3(C)C[C@H]12` (stereo partly drawn): the TGI was 27.1 µM. The molecule `COc1cccc2c1C(=O)c1ccc3cc(CO)cc(O)c3c1C2=O` yielded a TGI of 4.62 µM. Molecule `C=CCN=C1N=C(CC(=O)OCC)CS1` displayed a TGI above 100 µM.

The molecule `CCOC(=O)C1(Cc2ccccc2)CCN(C(=O)c2ccccc2)C2C1C2(Cl)Cl` (stereo not drawn) gave a TGI of 92.1 µM. For `O=C(O)c1cc2c(cc1S(=O)(=O)O)C1C(C3C2C2(Cl)C(Cl)=C(Cl)C3(Cl)C2(Cl)Cl)C2(Cl)C(Cl)=C(Cl)C1(Cl)C2(Cl)Cl` (stereo not drawn), the TGI was found to be 73.9 µM. `CC(=O)OC[C@@H]1[C@H]2CC(=O)O[C@H]2C[C@H]1OC(C)=O` yielded a TGI above 100 µM. The same measure, in the same setting: under `C/C(=N/NC(=S)N(Cc1ccccn1)Cc1ccccn1)c1cnccn1` stands 11.4 µM. Still for that read-out and setting: for `OCC1CCCCN1Cc1nc2ccc(Cl)cc2[nH]1` (stereo not drawn) the value was above 100 µM; for `CCCCN(CCCC)c1ccc(N=Nc2ccc(S(=O)(=O)O)cc2)cc1`, 68.6 µM. `COC(=O)c1ccc(NCC2=CC(=O)c3ccccc3C2=O)cc1` yielded a TGI of 35.7 µM. Regarding `NC(=O)C1=C(c2ccccc2)c2ccccc2C1=O`, the TGI amounted to 37.8 µM. `COc1ccc2c(-c3ccc(O)cc3)c(Oc3ccccc3)c(=O)oc2c1` had a TGI above 49.1 µM.

For `COc1ccc(C(=O)c2cc(OC)c(OC)c(OC)c2)cc1O`, the GI50 is 0.0622 µM and the TGI was above 100 µM. On to `CC1(C)SC2C(NC(=O)Cc3ccccc3)C(=O)N2C1C(=O)O` (stereo not drawn), for which the TGI is above 100 µM.

As to `CN(C)CCNC(=O)c1cc([N+](=O)[O-])ccn1`, the TGI amounted to 87.2 µM. As to `Cc1cc2c(c(C#N)c1C)NC(=O)C(CC(=O)O)C2=O` (stereo not drawn), the TGI is above 100 µM. `O=C(c1cc(-c2cc3c(cc2C(=O)N2Cc4ccccc4C[C@H]2CN2CCOCC2)OCO3)n2c1CCCC2)N(c1ccccc1)c1ccc(O)cc1`: the GI50 is 20.7 µM and the TGI was above 100 µM. In the case of `Cc1cc2c(C(N)=O)cccc2n1-c1nc2c(c(NCc3ccccc3)n1)CCCN2`, the GI50 is 0.288 µM and the TGI was determined as 0.798 µM.

Consider `COc1ccc(C(=O)/C=C/c2cc(C(=O)c3cc(OC)c(OC)c(OC)c3)ccc2OC)cc1`, for which the GI50 was above 100 µM and the TGI is above 100 µM.

`O=S(=O)(O)Nc1ccc(-c2nc3ccccc3s2)cc1Cl` came in with a TGI above 100 µM. Turning to `CCCCCC(/C=N/NC(N)=S)C(O)(C(F)(F)F)C(F)(F)F` (stereo not drawn), the TGI was above 10 µM. `CC1=NN(C(=O)CC(=O)Nc2cccc(Cl)c2)C(=O)C1N=Nc1ccc(S(=O)(=O)c2ccc(N=NC3C(=O)N(C(=O)CC(=O)Nc4cccc(Cl)c4)N=C3C)cc2)cc1` (stereo not drawn) had a TGI above 100 µM.

The record behind these values is PubChem BioAssay (NCI).
